Source: paper PMC9525610
Where a chain is given by its changes, count along the chain named. Results are given in words; binding and its absence hold for the method and conditions named. Binding seen in cells or lysates may run through a third protein. Some results given as binding are weak or reduced against the parent protein; the word gives no strength. For some assays here: Where a sequence is shown, tags or fusion partners need not be part of it. Blank lines part the entries; values can stand above or below the molecule they belong to.

By UniProt entry, the sequences of proteins in these tests, tags left out. Where a name states a change or a piece, a line headed by the entry shows the natural chain unless it says otherwise. Residues count along the entry.
UniProt Q9NRC8: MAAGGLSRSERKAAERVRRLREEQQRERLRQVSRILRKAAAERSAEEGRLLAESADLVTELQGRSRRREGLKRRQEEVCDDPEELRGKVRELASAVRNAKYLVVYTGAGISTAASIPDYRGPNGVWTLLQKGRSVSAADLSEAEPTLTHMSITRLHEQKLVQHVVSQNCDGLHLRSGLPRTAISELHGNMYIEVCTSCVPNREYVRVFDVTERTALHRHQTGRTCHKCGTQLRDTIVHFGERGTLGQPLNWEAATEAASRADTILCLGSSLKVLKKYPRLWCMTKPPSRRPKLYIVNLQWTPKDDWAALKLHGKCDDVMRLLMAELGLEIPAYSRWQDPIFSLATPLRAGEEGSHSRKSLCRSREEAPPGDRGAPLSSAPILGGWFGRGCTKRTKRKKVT
Flag-SIRT7 ΔC (N-terminus with CC region, 1-330): residues 1-330 of Q9NRC8
Flag-SIRT7 ΔN (C-terminus with CC region, 91-400): residues 91-400 of Q9NRC8
Flag-SIRT7 catalytic core region (CC: 91-330): residues 91-330 of Q9NRC8

Tests used:
HA-OGT^TPR (human) = molecular target: T1, HA-OGT^TPR (human) (UniProt O15294); experiment: co-IP; HEK293T cells transfected with HA-OGT and Flag-SIRT7 constructs; Pierce IP buffer; immunomagnetic beads coupled with anti-Flag/anti-HA antibody; washed with TBST (150 mM NaCl, pH 7.5); western blot
T1 sequence: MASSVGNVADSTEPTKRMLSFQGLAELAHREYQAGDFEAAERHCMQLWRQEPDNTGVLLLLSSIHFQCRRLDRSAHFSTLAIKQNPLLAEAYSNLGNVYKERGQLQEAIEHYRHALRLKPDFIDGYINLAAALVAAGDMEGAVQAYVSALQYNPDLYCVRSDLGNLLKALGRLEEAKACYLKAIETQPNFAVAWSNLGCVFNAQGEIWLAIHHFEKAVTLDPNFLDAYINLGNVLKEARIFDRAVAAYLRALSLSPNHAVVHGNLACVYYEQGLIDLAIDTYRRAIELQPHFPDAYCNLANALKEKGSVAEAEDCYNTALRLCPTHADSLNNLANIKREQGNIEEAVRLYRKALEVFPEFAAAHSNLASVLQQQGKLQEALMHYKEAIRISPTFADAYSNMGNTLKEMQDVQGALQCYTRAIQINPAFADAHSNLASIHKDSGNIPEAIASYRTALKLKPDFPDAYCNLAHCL

Flag-SIRT7 = Flag-SIRT7 (UniProt Q9NRC8); experiment: as above
[1] = molecular target: Flag-SIRT7 catalytic core region (CC: 91-330) (UniProt Q9NRC8); experiment: as above
[2] = molecular target: Flag-SIRT7 ΔC (N-terminus with CC region, 1-330) (UniProt Q9NRC8); experiment: as above
[3] = molecular target: Flag-SIRT7 ΔN (C-terminus with CC region, 91-400) (UniProt Q9NRC8); experiment: as above
[4] = molecular target: endogenous SIRT7 (PANC-1 and MiaPaCa-2 cells) (human (endogenous in PANC-1 and MiaPaCa-2)) (UniProt Q9NRC8); experiment: co-IP; endogenous SIRT7 and OGT in PANC-1 and MiaPaCa-2 cells; antibodies with protein A/G agarose; western blot
[5] = molecular target: SIRT7 in PDAC patient specimens (human (endogenous in PDAC patient tissue)) (UniProt Q9NRC8); experiment: proximity ligation; Duolink PLA, bright field, on PDAC patient tissue sections with anti-SIRT7 and anti-OGT antibodies

- binding (HA-OGT^TPR (human)): binds
Molecule: Flag-SIRT7 (from UniProt Q9NRC8 1-400)

- binding (Flag-SIRT7): binds
- binding [1]: no binding
- binding [2]: no binding
- binding [3]: binds
B1: HA-OGT (enzyme, UniProt O15294 1-1046)
chain: MASSVGNVADSTEPTKRMLSFQGLAELAHREYQAGDFEAAERHCMQLWRQEPDNTGVLLLLSSIHFQCRRLDRSAHFSTLAIKQNPLLAEAYSNLGNVYKERGQLQEAIEHYRHALRLKPDFIDGYINLAAALVAAGDMEGAVQAYVSALQYNPDLYCVRSDLGNLLKALGRLEEAKACYLKAIETQPNFAVAWSNLGCVFNAQGEIWLAIHHFEKAVTLDPNFLDAYINLGNVLKEARIFDRAVAAYLRALSLSPNHAVVHGNLACVYYEQGLIDLAIDTYRRAIELQPHFPDAYCNLANALKEKGSVAEAEDCYNTALRLCPTHADSLNNLANIKREQGNIEEAVRLYRKALEVFPEFAAAHSNLASVLQQQGKLQEALMHYKEAIRISPTFADAYSNMGNTLKEMQDVQGALQCYTRAIQINPAFADAHSNLASIHKDSGNIPEAIASYRTALKLKPDFPDAYCNLAHCLQIVCDWTDYDERMKKLVSIVADQLEKNRLPSVHPHHSMLYPLSHGFRKAIAERHGNLCLDKINVLHKPPYEHPKDLKLSDGRLRVGYVSSDFGNHPTSHLMQSIPGMHNPDKFEVFCYALSPDDGTNFRVKVMAEANHFIDLSQIPCNGKAADRIHQDGIHILVNMNGYTKGARNELFALRPAPIQAMWLGYPGTSGALFMDYIITDQETSPAEVAEQYSEKLAYMPHTFFIGDHANMFPHLKKKAVIDFKSNGHIYDNRIVLNGIDLKAFLDSLPDVKIVKMKCPDGGDNADSSNTALNMPVIPMNTIAEAVIEMINRGQIQITINGFSISNGLATTQINNKAATGEEVPRTIIVTTRSQYGLPEDAIVYCNFNQLYKIDPSTLQMWANILKRVPNSVLWLLRFPAVGEPNIQQYAQNMGLPQNRIIFSPVAPKEEHVRRGQLADVCLDTPLCNGHTTGMDVLWAGTPMVTMPGETLASRVAASQLTCLGCLELIAKNRQEYEDIAVKLGTDLEYLKKVRGKVWKQRISSPLFNTKQYTMELERLYLQMWEHYAAGNKPDHMIKPVEVTESA

- binding [4]: binds
B2: endogenous OGT (PANC-1 and MiaPaCa-2 cells) (enzyme, UniProt O15294 1-1046)
chain: B1 chain

- binding (Flag-SIRT7): binds
B3: HA-OGT-908A (enzyme, UniProt O15294 1-1046)
chain: B1 chain with K908A

- binding [5]: binds
B4: OGT in PDAC patient specimens (enzyme, UniProt O15294 1-1046)
chain: B1 chain
